From ChEMBL document CHEMBL4888484, “Replenishing the malaria drug discovery pipeline: Screening and hit evaluation of the MMV Hit Generation Library 1 (HGL1) against asexual blood stage Plasmodium falciparum ,using a nano luciferase reporter read-out” (2022)
Out of some 150,000 compounds screened, about 540 (0.36%) showed an effect of 50% or more. This is one part of the list.

System: Plasmodium falciparum
Assay: Primary screen in NF54 nanoGlo assay, in single point, at 2uM, 72h; a lower Z score goes with more inhibition
Assay type: functional, Erythrocyte
Settings: timepoint 72 hour

| Structure (SMILES) | % Inhibition [%] | Z score |
| --- | --- | --- |
| COCCc1noc([C@@H]2CCCN2C(=O)c2cc(-c3cccn3C)n[nH]2)n1 | -3 | 0.32 |
| Cc1c(CN2CC[C@H](CNC(=O)NC(C)C)C2)[nH]c2ccccc12 | -9 | 1.48 |
| O=C(Nc1ccc2c(c1)OCCO2)c1ccc2c(c1)N(Cc1ccc(F)cc1)C(=O)CO2 | -7 | 1.29 |
| CC(C)C(=O)Nc1nnc(CC2=CCCCC2)s1 | -4 | 0.47 |
| COc1ccccc1C1c2[nH]c3ccccc3c2C[C@H]2C(=O)N(CC(O)c3ccccc3)CC(=O)N12 (stereo partly specified) | 30 | -4.49 |
| N#Cc1c(N)sc2c1CCN(c1cc(-n3ccnc3)ncn1)C2 | 4 | -0.48 |
| Cc1cc(Cl)cc(C(=O)N[C@@H](CN)C2CCCC2)c1 | -2 | 0.32 |
| C#CCOCC(O)CN(Cc1ccccc1F)C(C)CC (stereo unspecified) | -1 | 0.13 |
| Cc1cnc(C)c(-c2ccc(C(=O)NCC[C@H]3CCCN3C)cc2)n1 | -7 | 0.91 |
| C[C@H](Nc1nc(Nc2ccccc2F)nc(Nc2ccccc2F)n1)C(=O)NC1CCCCC1 | 2 | -0.28 |
| COc1ccc(S(=O)(=O)N2CCC[C@@H]2Cc2noc(-c3cnccn3)n2)cc1 | -3 | 0.48 |
| CC[C@H]1COCCN1C(=O)c1ccc(Cn2ccc3ccccc32)o1 | -4 | 0.71 |
| Cc1cc(N2CCN(c3cc4c(nn3)CCC4)CC2)nc(C2CC2)n1 | 10 | -1.34 |
| C#Cc1ccc(NC(=O)c2scnc2CCc2ccncc2)cc1 | -2 | 0.23 |
| Cc1ccc(Cn2cccc2C(=O)C(=O)NCc2ccccc2)cc1C | 2 | -0.18 |
| CCS(=O)(=O)c1cc(F)ccc1NC(=O)NC1CC1C (stereo unspecified) | -9 | 1.06 |
| CN1C2CCC1CC(Nc1nccn3nc(C(F)(F)F)cc13)C2 (stereo unspecified) | -6 | 0.71 |
| CC1(C)CN(CC(=O)NCCc2ccccc2)C[C@]1(C)O | -17 | 2.95 |
| COC(C)(C)C(=O)Nc1ccc(-n2ccc(=O)cc2)nc1 | -8 | 0.76 |
| CCN(Cc1c(CO)cnc(C)c1O)c1nc2ccccc2o1 | 1 | -0.16 |
| O=S1(=O)C[C@@H]2[C@H](C1)N(CC1CC1)CCN2CCOc1ccc(F)cc1 | -1 | 0.12 |
| CCCc1cc(C(=O)NC2CCCCCC2CO)[nH]n1 (stereo unspecified) | -9 | 1.19 |
| Cc1cccc(-c2nnc3c4ccccc4nc(N4CCN(S(=O)(=O)c5ccccc5)[C@@H](C)C4)n23)c1 | -2 | 0.26 |
